From ChEMBL document CHEMBL4888484, “Replenishing the malaria drug discovery pipeline: Screening and hit evaluation of the MMV Hit Generation Library 1 (HGL1) against asexual blood stage Plasmodium falciparum ,using a nano luciferase reporter read-out” (2022) come the findings set out here.

Hit rate of the full screen: of about 150,000 compounds, about 540 (0.36%) showed an effect of 50% or more. Some of the results follow.

Broadly, the % Inhibition is the relative decrease from the control value, in per cent.

The assay deals with Plasmodium falciparum. Briefly: Primary screen in NF54 nanoGlo assay, in single point, at 2uM, 72h; a lower Z score goes with more inhibition. The class given is functional, Erythrocyte. Conditions: timepoint 72 hour.
Take `Cc1nn(C)c2nc(NCCN3CCC[C@H](CO)C3)sc12`: the “% Inhibition” value is reported as -4% and the Z score is 0.8.
Taken in the same sequence, the figures for `COc1ccccc1NC(=O)c1c(C)n[nH]c1NCc1cnnn1C` were 13% and -1.54.
For `COc1cc(N[C@@H](C)c2ccc(N3CCOCC3)cc2)ncn1` the same measures were -6% and 1.25.
Taken in the same sequence, the figures for `C=CCc1cc(C(=O)N2CC[C@]3(OC)CC[C@H](OC)C[C@H]23)ccc1OC` were 1% and -0.21.
With `O=C(Nc1ccc(-n2cccc(C(=O)NC3CCCCC3)c2=O)cc1)c1ccccc1`, the “% Inhibition” value came to 23% and the Z score is -3.31.
Taken in the same sequence, the figures for `Cc1ncsc1CN(C)[C@H]1CCc2nn(C)c(=O)n2CC1` were -5% and 0.75.
Taken in the same sequence, the figures for `O=C1NC2(CCN(Cc3ccc(F)cc3)CC2)Nc2cccc(F)c21` were -11% and 1.06.
Consider `Cc1ncsc1C(=O)N1CC(n2nccn2)C1`, for which the “% Inhibition” value is -9% and the Z score came out at 1.05.
For `O=C(CC(F)(F)F)NCc1ccccc1F` the same measures were 1% and -0.13.
For the molecule `N#Cc1cc2n(c1N)-c1ccccc1C2=O`, the “% Inhibition” value is reported as -2% and the Z score is reported as 0.3.
`Cc1cc(C)n([C@@H](C)CNC(=O)Nc2cc3c(cc2C)n(C)c(=O)n3C)n1`: the “% Inhibition” value was -7% and the Z score came out at 0.98.
Taken in the same sequence, the figures for `COc1cccc(N2C[C@H](C)N(C(=O)c3cnc4ccnn4c3C)CC2=O)c1` were -6% and 0.94.
Taken in the same sequence, the figures for `CCC1CN(C(=O)CCn2nc3ccccn3c2=O)C1` were -13% and 1.5.
Taken in the same sequence, the figures for `Cc1ccc(Cn2ccn3nc(-c4ccc5c(c4)OCO5)cc3c2=O)cc1` were -10% and 1.22.
Turning to `CCn1cc(C2OCCC2CNCc2occc2C)cn1` (stereo not given), the “% Inhibition” value amounted to 5% and the Z score was -0.72.
Taken in the same sequence, the figures for `O=C([C@H]1CC(=O)N(c2ccccc2)C1)N1CCN(c2ncnc3c2nnn3-c2cccc(F)c2)CC1` were -9% and 1.64.
As to `Clc1c(CNc2nc(C3CC3)ns2)nc2ccccn12`, the “% Inhibition” value is given as -19% and the Z score is on record as 2.42.
Taken in the same sequence, the figures for `O=C(O)C12CC(C(=O)N3CCC(OCc4ccc(F)cc4)CC3)(C1)C2` were 1% and -0.15.
Taken in the same sequence, the figures for `CC(C)C(C(=O)N1CC[C@@H](O)C1)N1CCCCC1` (stereo not given in full) were 9% and -1.83.
Taken in the same sequence, the figures for `COC[C@@H]1CN(Cc2ccc(Br)o2)C[C@H]1c1nc(C)no1` were -13% and 2.29.
Regarding `COc1ccc(CC(=O)c2ccc(O)c(CN3CCN(C)CC3)c2O)cc1`, the “% Inhibition” value is -11% and the Z score is 1.42.
Taken in the same sequence, the figures for `O=C(NCc1nc(C2CC2)no1)c1ccc(Nc2ccncc2)cc1` were -10% and 2.13.
Taken in the same sequence, the figures for `CC(=O)Nc1nnc([C@H]2CC(=O)N(c3ccc(Cl)cc3)C2)s1` were -13% and 2.3.
For the molecule `CC(C)N(C1CC1)S(=O)(=O)c1ccc(OCC(F)(F)F)nc1`, the “% Inhibition” value is reported as 3% and the Z score is given as -0.44.
Take `N#Cc1c(-c2ccccc2OCCN2CCOCC2)cc(C2CC2)nc1N`: the “% Inhibition” value is reported as -13% and the Z score turned out to be 2.17.
For `CCOc1ccc(CN2CCO[C@]3(CNCCOC3)C2)cc1Cl` the same measures were 0% and -0.05.
For `O=C1NCCCC[C@@H]1Oc1ccc(OCc2nnc3n2CCCCC3)cc1` the same measures were 1% and -0.17.
For `Cc1ccsc1CN1CCC(C(=O)O)(n2cccn2)CC1` the same measures were -4% and 0.7.
On to `CN1CCCCC[C@H]1c1nc(CC(N)=O)nn1-c1ccc(F)c(F)c1`, for which the “% Inhibition” value is listed as -2% and the Z score is recorded as 0.26.
Taken in the same sequence, the figures for `CC(COC1CCOC1)NC1CCc2c(Br)cc(Cl)cc21` (stereo not given) were -6% and 0.99.
For `O=C(Cc1cccc2ccccc12)N[C@H]1CCN(c2nccs2)C1` the same measures were -3% and 0.51.
For `CCc1cc([C@@H]2CCCN2Cc2cc(OC)cc(OC)c2)on1` the same measures were -14% and 1.81.
On to `Cc1c(C(=O)NC[C@H]2CCC(C)(C)O2)cnn1C1CCCC1`, for which the “% Inhibition” value is reported as -4% and the Z score is 0.72.
With `Cc1noc(C)c1CN(C)C(=O)[C@H]1CCC(=O)NC1`, the “% Inhibition” value is reported as -8% and the Z score came to 0.69.
Taken in the same sequence, the figures for `OC[C@H]1CN(Cc2ccccc2C(F)(F)F)C[C@H]1CN1CCCCC1` were -13% and 1.22.
Taken in the same sequence, the figures for `CN(C)[C@H]1[C@H](NC(=O)c2cc(F)cc(Cl)c2)[C@@H]2CCO[C@@H]21` were -4% and 0.6.
Taken in the same sequence, the figures for `C[C@@H]1CN(c2ccnc(C(=O)O)c2)C[C@]1(C)O` were -14% and 1.88.
For `CCCCS(=O)(=O)N[C@H]1CCN(C2CCCC2)C1`, the “% Inhibition” value is -11% and the Z score stood at 1.33.
For the molecule `C=CCOc1ccccc1CN1CC2(C)CC1CC(C)(C)C2` (stereo not given), the “% Inhibition” value was -15% and the Z score is 2.09.
Taken in the same sequence, the figures for `O=C(Nc1ccnn1Cc1cccs1)c1cccc2ccccc12` were 2% and -0.27.
Taken in the same sequence, the figures for `COc1ccc(OC)c(CNc2nccc(-n3nc(C)cc3C)n2)c1` were -3% and 0.51.
Consider `C[C@@H](C(=O)NS(=O)(=O)CC1CCCC1)c1ccccc1`, for which the “% Inhibition” value is listed as -19% and the Z score is listed as 1.86.
For `Cc1ccc2nc(N3CCN(C(=O)C(C)(C)C)CC3)c(-c3noc(-c4ccccc4)n3)cc2c1` the same measures were -30% and 5.56.
Taken in the same sequence, the figures for `COc1ccc(NC(=O)CN2CCC[C@H](C)C2)cc1S(=O)(=O)N1CCCCC1` were -14% and 1.68.
Regarding `Cc1ncoc1CNC(=O)NC[C@H](C)C1CC1`, the “% Inhibition” value was -8% and the Z score amounted to 1.11.
Taken in the same sequence, the figures for `Cc1nonc1CC(=O)NCCc1nccs1` were -6% and 1.01.
For `COc1ccc(CN(C)C(=O)c2ccc(N(C)C)cc2)c(OC)c1`, the “% Inhibition” value is reported as -20% and the Z score is listed as 3.75.
For `Cc1ccc(OCC(=O)N2CCCN(C(=O)COc3ccc(C)cc3)CC2)cc1` the same measures were -9% and 0.99.
For `Cc1cc(C)cc(OC(=O)c2cccc(N3C(=O)C4CCC(c5ccccc5)CC4C3=O)c2)c1` (stereo not given) the same measures were 4% and -0.42.
Taken in the same sequence, the figures for `CN(Cc1cc[nH]n1)C(=O)NCCCOC1CCCC1` were 0% and 0.04.
As to `Brc1cc2c(c(CN3CCCCC3)c1)O[C@@H](c1ccccc1)OC2`, the “% Inhibition” value is listed as 12% and the Z score is recorded as -1.83.
Taken in the same sequence, the figures for `Cc1ccsc1CN(C(=O)[C@H]1CC(=O)N(C2CCCC2)C1)C(C)C` were -6% and 0.85.
Taken in the same sequence, the figures for `Cc1ccc(N2CCC(N[C@@H]3CC[C@@H]3NC(=O)Cc3ccccc3F)CC2)cc1` were -4% and 0.71.
As for `O=C(NCc1cccnc1-c1ccncc1)c1ccncc1`, the “% Inhibition” value was -3% and the Z score is reported as 0.31.
Taken in the same sequence, the figures for `O=C(Cn1c(=O)nc(-c2ccccc2F)c2cc(Cl)ccc21)NCCCc1ccccc1` were -11% and 1.12.
